# From the supplement of paper PMC11880418
# Counter-ions that a name gives are not always drawn. The list shows a part of the results. The data scatter; read single values as rough.
# Experiments:
# Test in all cases: ALDHbr (CSC) cell proportion score relative to DMSO vehicle (ratio to DMSO); breast (SUM159) / gastric (MKN45) / pancreatic (PANC1) / colon cancer lines; ALDHbr cells have high ALDH activity and are rich in cancer stem cells (CSC); higher = more CSC (ALDHbr) cells remaining
# Conditions in all cases: 10 µM; 72 h
# MKN45 = system: MKN45
# PANC1 = system: PANC1
# SUM159 = system: SUM159
# T84 = system: T84
# 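Note: High-content imaging of ALDEFLUOR-stained cells with Hoechst-labelled nuclei in 384-well plates, triplicate wells, scored as Z-score against 0.1% DMSO vehicle, negative meaning fewer ALDHbr cells.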
Structure (SMILES),ALDHbr (MKN45),ALDHbr (PANC1),ALDHbr (SUM159),ALDHbr (T84)
CC(=O)OCC(=O)[C@@]1(OC(C)=O)[C@@H](C)C[C@H]2[C@@H]3C[C@H](F)C4=CC(=O)C=C[C@]4(C)[C@@]3(F)[C@@H](O)C[C@@]21C [Diflorasone Diacetate],1.24,0.657,0.731,0.814
CCOCCn1c(N2CCCN(C)CC2)nc2ccccc21 [Emedastine],0.993,0.872,1.1,0.847
COc1ccc(Cl)cc1C(=O)NCCc1ccc(S(=O)(=O)NC(=O)NC2CCCCC2)cc1 [Glibenclamide],1.25,0.841,1.68,1.03
COC(=O)[C@H](c1ccccc1Cl)N1CCc2sccc2C1 [Clopidogrel],0.759,0.991,0.888,0.89
O=C(O)CCc1nc(-c2ccccc2)c(-c2ccccc2)o1 [Oxaprozin],0.982,1.03,0.957,0.991
CC(C)c1nc(CN(C)C(=O)N[C@H](C(=O)N[C@@H](Cc2ccccc2)C[C@H](O)[C@H](Cc2ccccc2)NC(=O)OCc2cncs2)C(C)C)cs1 [Ritonavir],0.182,0.532,0.254,0.627
CC(=O)Oc1ccc(C(c2ccc(OC(C)=O)cc2)c2ccccn2)cc1 [Bisacodyl],1.04,0.965,1.16,0.916
Nc1nc(/C(=C/CC(=O)O)C(=O)N[C@@H]2C(=O)N3C(C(=O)O)=CCS[C@H]23)cs1 [Ceftibuten],1.22,1.01,0.856,1.12
COC(=O)[C@H]1[C@H]2C[C@@H]3c4[nH]c5cc(OC)ccc5c4CCN3C[C@H]2C[C@@H](OC(=O)c2cc(OC)c(OC)c(OC)c2)[C@@H]1OC [Reserpine],1.27,0.896,0.683,0.89
Nc1ncnc2c1ncn2[C@@H]1O[C@H](CO)[C@@H](O)[C@@H]1O [Vidarabine],0.886,0.877,1.9,0.903
CN[C@@H]1[C@H](O)[C@H](NC)[C@H]2O[C@@]3(O)C(=O)C[C@@H](C)O[C@H]3O[C@@H]2[C@H]1O [Spectinomycin dihydrochloride],0.885,0.694,0.818,0.974
NCCCCCC(=O)O [Aminocaproic acid],0.947,0.776,0.876,0.977
NC1CCN(c2c(F)cc3c(=O)c(C(=O)O)cn(C4CC4)c3c2Cl)C1 (centres undefined) [Clinafloxacin],0.87,0.999,0.952,0.997
"CC(C)(S)C(N)C(=O)O (racemic) [D,L-Penicillamine]",1.06,0.977,1.04,0.921
"Cc1cn([C@H]2C[C@H](N=[N+]=[N-])[C@@H](CO)O2)c(=O)[nH]c1=O [Zidovudine, AZT]",1.17,1.03,1.15,0.808
COCCCC/C(=N\OCCN)c1ccc(C(F)(F)F)cc1 [Fluvoxamine maleate],0.736,0.829,0.873,0.855
CC1=C(C(=O)O)N2C(=O)[C@@H](NC(=O)[C@H](N)c3ccc(O)cc3)[C@H]2SC1 [Cefadroxil],0.999,0.988,0.841,1.02
O=C(O)c1ccccc1C(=O)Nc1ccc(S(=O)(=O)Nc2nccs2)cc1 [Phthalylsulfathiazole],0.988,0.878,0.972,1.02
CCN(CC)C(C)CN1c2ccccc2Sc2ccccc21 (centres undefined) [Ethopropazine hydrochloride],0.901,1.14,0.824,0.993

Structure (SMILES),ALDHbr (MKN45),ALDHbr (PANC1),ALDHbr (SUM159),ALDHbr (T84)
"CN1[C@@H]2CC[C@H]1C[C@@H](OC(=O)C(O)c1ccccc1)C2 (mixture of isomers) [Homatropine hydrobromide (R,S)]",0.945,0.91,0.941,0.905
COCCCOc1ccnc(C[S+]([O-])c2nc3ccccc3[nH]2)c1C (centres undefined) [Rabeprazole Sodium salt],0.772,0.997,1.29,0.752
O=C(COc1ccc(Cl)cc1)N1CCN(Cc2ccc3c(c2)OCO3)CC1 [Fipexide hydrochloride],0.715,0.665,1.2,0.984
CC(C(=O)O)c1ccc2c(c1)[nH]c1ccc(Cl)cc12 (centres undefined) [Carprofen],1.2,0.939,0.834,0.958
NS(=O)(=O)c1cc2c(cc1C(F)(F)F)NC(Cc1ccccc1)NS2(=O)=O (centres undefined) [Bendroflumethiazide],0.959,0.881,1.08,0.987
Nc1ccc(S(=O)(=O)Nc2ccnn2-c2ccccc2)cc1 [Sulfaphenazole],0.889,0.645,1.02,0.914
NC(=O)NC1NC(=O)NC1=O (centres undefined) [Allantoin],0.945,0.858,0.991,1
Cc1onc(-c2ccccc2)c1-c1ccc(S(N)(=O)=O)cc1 [Valdecoxib],0.79,0.859,1.34,0.972
Clc1ccc(CO/N=C(\Cn2ccnc2)c2ccc(Cl)cc2Cl)c(Cl)c1 [Oxiconazole Nitrate],0.93,1.28,0.947,0.565
CC(C)NNC(=O)c1ccncc1 [Iproniazide phosphate],0.989,0.875,0.931,0.967
CC(C(=O)O)c1ccc(-c2ccccc2)c(F)c1 (centres undefined) [Flurbiprofen],1.05,0.916,1,1.06
O=C(O)COC(=O)Cc1ccccc1Nc1c(Cl)cccc1Cl [Aceclofenac],0.915,0.979,0.755,0.913
C#C[C@]1(OC(C)=O)CC[C@H]2[C@@H]3CCC4=CC(=NO)CC[C@@H]4[C@H]3CC[C@@]21CC (mixture of isomers) [Norgestimate],0.898,0.91,0.798,0.84
N#CC(c1ccc(Cl)cc1)c1c(Cl)cc(-n2ncc(=O)[nH]c2=O)cc1Cl (centres undefined) [Diclazuril],0.393,0.831,1.42,1.1
Fc1ccc([C@@H]2CCNC[C@H]2COc2ccc3c(c2)OCO3)cc1 [Paroxetine Hydrochloride],1.45,0.883,0.809,0.848
CC/C(=C(\c1ccccc1)c1ccc(OCCN(C)C)cc1)c1ccccc1 [Tamoxifen citrate],0.665,0.822,0.46,0.193
NCCc1c[nH]cn1 [Histamine dihydrochloride],1.01,1.02,1.3,0.879
N[C@@H]1CONC1=O [D-cycloserine],1.06,1.03,1.03,0.993
C[C@H](CCC(=O)O)[C@H]1CC[C@H]2[C@@H]3[C@@H](O)C[C@@H]4C[C@H](O)CC[C@]4(C)[C@H]3CC[C@]12C [Urosiol],1.03,0.857,0.976,0.988

Structure (SMILES),ALDHbr (MKN45),ALDHbr (PANC1),ALDHbr (SUM159),ALDHbr (T84)
Cc1cc(=O)n(-c2ccccc2)n1C [Antipyrine],0.861,0.851,1.32,0.715
COc1cc2ncnc(Nc3ccc(F)c(Cl)c3)c2cc1OCCCN1CCOCC1 [Gefitinib],0.653,1.38,0.608,0.281
CC(C)Cc1ccc([C@H](C)C(=O)O)cc1 [S-(+)-ibuprofen],1.12,0.964,0.942,1.01
Oc1c(Cl)cc(Cl)c2cccnc12 [Chloroxine],0.581,1.17,0.243,0.548
"CC(C)NCC(O)c1ccc(O)c(O)c1 (single isomer, unassigned; (-)) [(-)-Isoproterenol hydrochloride]",0.99,0.852,2.18,0.946
"OC(CCN1CCCCC1)(c1ccccc1)C1CCCCC1 (centres undefined) [Trihexyphenidyl-D,L Hydrochloride]",1.3,0.984,1.15,0.976
CCCc1cc(=O)[nH]c(=S)[nH]1 [Propylthiouracil],0.992,0.943,1.19,0.92
COc1ccc2c3c1O[C@H]1C[C@@H](O)C=C[C@@]31CCN(C)C2 [Galanthamine hydrobromide],1.02,0.889,1.09,0.862
CCCc1cc(C(N)=S)ccn1 [Prothionamide],0.981,0.94,0.988,0.731
Oc1ccc(C2CNCCc3c2cc(O)c(O)c3Cl)cc1 (centres undefined) [Fenoldopam],1.01,0.879,1.61,1.03
COc1cc(C(=O)NS(=O)(=O)c2ccccc2C)ccc1Cc1cn(C)c2ccc(NC(=O)OC3CCCC3)cc12 [Zafirlukast],1.17,0.991,0.804,0.933
Nc1ncnc2c1ncn2C1OC(COP(=O)(O)O)C(O)C1O (centres undefined) [Adenosine 5'-monophosphate monohydrate],1.1,0.807,1.42,1.02
CN(C)CC/C=C1\c2ccccc2CSc2ccccc21 [Dosulepin hydrochloride],0.908,1.02,0.646,0.804
CO[C@@H]1[C@@H](O[C@@H]2O[C@H](C)[C@@H](O[C@H]3C[C@@](C)(O)[C@@H](OC(=O)CC(C)C)[C@H](C)O3)[C@H](N(C)C)[C@H]2O)[C@@H](CC=O)C[C@@H](C)[C@@H](O)/C=C/C=C/C[C@@H](C)OC(=O)C[C@H]1OC(C)=O [Josamycin],0.594,0.641,1.4,0.773
CCN1CCC[C@H]1CNC(=O)c1c(O)c(Cl)cc(Cl)c1OC [Raclopride],1.15,0.885,1.29,0.908
CC(C)OC(=O)CCC/C=C\C[C@@H]1[C@@H](CC[C@@H](O)CCc2ccccc2)[C@H](O)C[C@@H]1O [Latanoprost],0.84,0.808,1.23,0.916
CN(C)CCC(c1ccc(Cl)cc1)c1ccccn1 (centres undefined) [Chlorpheniramine maleate],0.986,0.859,0.943,0.795
NC(=O)N1c2ccccc2C=Cc2ccccc21 [Carbamazepine],0.934,0.932,0.927,0.901
